# Laboratory results reported in paper PMC4336329 (PLoS ONE, 2015).
# Hit rate of the full screen: of about 310,000 compounds, about 2,200 (0.71%) showed an effect of 50% or more. The effect is printed as a negative number. Some of the results follow.
# Target: human ether-à-go-go-related gene (hERG) potassium channel (human, UniProt Q12809)
# Assay: primary screen, population patch clamp on CHO cells stably expressing hERG
# Sequence of human ether-à-go-go-related gene (hERG) potassium channel (Q12809 whole entry, looked up): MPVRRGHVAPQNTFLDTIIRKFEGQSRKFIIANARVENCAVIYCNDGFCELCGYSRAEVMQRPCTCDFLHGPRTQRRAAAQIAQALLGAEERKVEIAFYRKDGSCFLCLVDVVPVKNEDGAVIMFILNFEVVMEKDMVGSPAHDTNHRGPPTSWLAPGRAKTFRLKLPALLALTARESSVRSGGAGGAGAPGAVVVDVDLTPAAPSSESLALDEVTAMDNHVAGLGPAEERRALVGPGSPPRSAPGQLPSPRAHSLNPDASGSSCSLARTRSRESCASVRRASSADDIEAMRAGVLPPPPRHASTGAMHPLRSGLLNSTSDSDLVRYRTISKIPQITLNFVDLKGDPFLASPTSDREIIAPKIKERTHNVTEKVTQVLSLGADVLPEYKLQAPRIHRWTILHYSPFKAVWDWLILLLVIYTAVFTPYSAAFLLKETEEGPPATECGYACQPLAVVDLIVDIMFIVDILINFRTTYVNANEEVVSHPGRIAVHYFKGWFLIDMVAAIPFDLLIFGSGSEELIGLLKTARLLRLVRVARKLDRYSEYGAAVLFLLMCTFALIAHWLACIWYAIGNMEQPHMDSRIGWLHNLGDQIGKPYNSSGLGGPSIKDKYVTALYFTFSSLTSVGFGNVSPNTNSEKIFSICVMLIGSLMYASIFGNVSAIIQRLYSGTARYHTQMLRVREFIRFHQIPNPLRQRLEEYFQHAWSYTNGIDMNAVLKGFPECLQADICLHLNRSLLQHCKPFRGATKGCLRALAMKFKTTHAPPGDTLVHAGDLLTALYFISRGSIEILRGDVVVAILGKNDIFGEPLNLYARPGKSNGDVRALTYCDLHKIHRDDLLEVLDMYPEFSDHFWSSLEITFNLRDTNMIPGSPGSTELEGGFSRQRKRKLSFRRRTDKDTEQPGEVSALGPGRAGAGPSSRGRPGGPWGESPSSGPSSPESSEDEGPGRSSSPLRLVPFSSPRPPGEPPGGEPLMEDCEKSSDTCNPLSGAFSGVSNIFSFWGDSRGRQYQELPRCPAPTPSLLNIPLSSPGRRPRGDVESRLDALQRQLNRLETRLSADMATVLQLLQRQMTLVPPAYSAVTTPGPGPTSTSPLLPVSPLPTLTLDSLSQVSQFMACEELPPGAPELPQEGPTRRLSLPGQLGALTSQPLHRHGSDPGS
row,Compound,"hERG current change (%, negative = inhibition) at 1uM [%]"
1,O=c1[nH]c(N2CCN(Cc3ccccc3)CC2)nc2c1CCC2,11.7
2,Cc1cc(N2C(=O)C3C4CC(c5ccccc5)C(C4)C3C2=O)no1 (stereo not drawn),12.7
3,CCOC(=O)c1cnc2ccc(OCC)cc2c1N1CCN(c2ccccc2)CC1,12.4
4,O=C(c1ccc(S(=O)(=O)Nc2ccc(F)cc2)cc1)N1CCN(c2ccccn2)CC1,0.658
5,CC(C)(C)c1ccc(C(=O)NCc2nnc(SCC(=O)NC3CCCCC3)o2)cc1,12.2
6,CCN(c1ccc(OC)cc1)c1ncnc2nc[nH]c12,2.77
7,Cc1ccc(S(=O)(=O)N(C)C)cc1NC(=O)CCCNC(=O)c1ccc(Cl)cc1,1.3
8,Cc1ccc(-c2ccc(C)c(N)c2C)c(C)c1N,17.4
9,O=C(Cn1ccc2ccccc2c1=O)NCCC(=O)NC1CCN(Cc2ccccc2)CC1,9.97
10,Cn1c(N2CCN(C(=O)NCc3ccccc3)CC2)nc2ccccc21,-18.6
11,O=C(NNC(=O)c1ccc2nonc2c1)Nc1ccc(Cl)cc1,8.38
12,O=C(N/N=C/c1ccc(F)cc1)c1ccccc1,20.8
13,CN(C)CC#CCC(O)(c1ccccc1)c1ccccc1,10.4
14,CCN(CC1CCCO1)C(=O)c1cc(COc2ccc(F)cc2F)on1 (stereo not drawn),2.73
15,Cn1c(O)c(C(c2ccccn2)c2c(O)n(C)c(=S)n(C)c2=O)c(=O)n(C)c1=S,11.6
16,Cc1c(Cl)cccc1NC(=S)N1CCCN(Cc2ccccc2F)C1,6.31
17,CN(C(=O)c1ccc(OC2CCN(S(=O)(=O)N(C)C)CC2)cc1)C1CCCCC1,-1.59
18,COc1ccc2oc(C(=O)OCC(=O)NC3CCCC3)c(C)c2c1,12.8
19,O=C(O)CCC(=O)NNC(=O)c1ccc([N+](=O)[O-])cc1,-5.96
20,CCCCOc1ncnc2c1[nH]c1ccccc12,17.1
21,COc1cccc(CNC(=O)C2CCCN(S(=O)(=O)c3cccc4nonc34)C2)c1 (stereo not drawn),-5.51
22,O=C(COc1ccc(Cl)cc1)Nc1cccc(-c2ccc3nncn3n2)c1,-36.2

row,Compound,"hERG current change (%, negative = inhibition) at 1uM [%]"
1,O=C(Cc1cccs1)Nc1ccc(-c2nnc(-c3ccccc3)o2)cc1,-5.92
2,O=C(c1cccc(S(=O)(=O)N2CCCC2)c1)N1CCCC(C(F)(F)F)C1 (stereo not drawn),2.98
3,Cc1ccc(CNC(C)(C)CO)cc1,2.03
4,CC(NS(=O)(=O)c1ccc(Br)cc1)C(=O)NCc1ccc2c(c1)OCO2 (stereo not drawn),-4.47
5,COc1ccc(CCNS(=O)(=O)c2ccc(N3CCCC3=O)cc2)cc1,13.7
6,COc1ccc(S[C@@H](CCN2CC[C@H](C)CCC2=O)c2ccccc2)cc1,7.84
7,CS(=O)(=O)N(CC(=O)Nc1ccc2c(c1)OCCO2)c1ccc2c(c1)OCO2,6.44
8,Cc1ccc(Nc2cc(-c3ccccc3)nc3ncnn23)cc1,4.44
9,O=C(COC(=O)C1CC2C=CC1C2)Nc1cccc(S(=O)(=O)N2CCOCC2)c1 (stereo not drawn),-3.17
10,NC(=S)N/N=C/c1ncc(C(F)(F)F)cc1Cl,16.9
11,Cn1c(Cn2c(=O)sc3ccccc32)nnc1SCC(=O)N1CCCc2ccccc21,1.01
12,CC(C)N(Cc1nccn1C)C(=O)CC1C(=O)NCCN1Cc1ccc(F)cc1 (stereo not drawn),22.2
13,Cc1cccc(NC(=O)CCC2CCN(C(=O)c3ccc(C)s3)CC2)c1,-0.131
14,Cc1cc([N+](=O)[O-])cc([N+](=O)[O-])c1NCC(C)C,8.35
15,CCOc1ccc(N(C)S(=O)(=O)c2csc(C(N)=O)c2)cc1,7.47
16,Cl.O=C(CCc1ccc(S(=O)(=O)N2CCOCC2)cc1)N1CCN(Cc2ccc3c(c2)OCO3)CC1,-12.4
17,COc1cc(NC(=S)NC(=O)c2ccccc2F)ccc1NC(=O)c1cccs1,7.13
18,Cc1ccc(C)c(N2CCN(C(=O)CCS(=O)(=O)c3ccc4c(c3)oc(=O)n4C)CC2)c1,3.59
19,Cc1ccc(-c2nc(CN3CCCCC3)cc(CN3CCCCC3)c2O)cc1.Cl,-15.5
20,Cc1nn(C)c(C)c1CN(Cc1nc(CCC(C)C)no1)C(C)C,9.86
21,O=C(Cc1ccccc1)CC1(O)C(=O)Nc2ccccc21 (stereo not drawn),9.09
22,Cc1cc(C)c(S(=O)(=O)N2CCOC2CNC(=O)C(=O)NCCN2CCOCC2)c(C)c1 (stereo not drawn),8.69

row,Compound,"hERG current change (%, negative = inhibition) at 1uM [%]"
1,Cc1ccc(S(=O)(=O)NCC(=O)N(CC(=O)NCc2ccccc2)CC2CCCO2)cc1 (stereo not drawn),2.53
2,O=C(C(c1ccccc1)c1ccccc1)N1CCN(Cc2ccco2)CC1.O=C(O)C(=O)O,5.13
3,CC(=O)NS(=O)(=O)c1ccc(NC(=O)/C=C/c2ccccc2Cl)cc1,10.7
4,O=C(Cn1c(=O)oc2ccccc21)c1ccccc1,3.89
5,COc1ccccc1C(=O)NC(CCSC)C(=O)OC(C)C(N)=O (stereo not drawn),6.16
6,O=C(Cc1ccccc1)Nc1c(Cl)ccc2nsnc12,8.42
7,CCCN1Cc2cccc(C(=O)Nc3ccc4c(c3)OCO4)c2C1=O,8.55
8,COC(=O)c1nn(-c2ccccc2)c(Sc2ccc(OC)cc2)c1/C=N/O,7.75
9,O=Nc1ccc(O)c2ncccc12,8.63
10,COc1ccc(S(=O)(=O)N(CC(=O)N2CCOCC2)Cc2ccccc2)cc1,3.47
11,CCOc1ccccc1NC(=O)Cc1c(F)cccc1Cl,2.79
12,CN(C)c1ccc(-c2noc(C3CCN(S(=O)(=O)c4ccc(C(=O)O)cc4)CC3)n2)cc1,10.2
13,CCN(CC)S(=O)(=O)c1cccc(C(=O)N[C@H](C(=O)OCC(N)=O)C(C)C)c1,5
14,O=C(COC(=O)/C=C/c1ccccc1Cl)NCCNC(=O)COC(=O)/C=C/c1ccccc1Cl,14.1
15,COc1cccc(C(=O)OCCN2CCOCC2)c1.Cl,3.73
16,Cn1c(C(=O)O)c(CC(=O)Nc2ccc3c(c2)OCCO3)c2ccccc21,19.2
17,O=C(NCCc1ccccc1)C1CCN(Cc2ccccc2F)CC1.O=C(O)C(=O)O,10.1
18,c1ccc(C2=Nc3c(ccc4ccccc34)C(c3ccncc3)=NN2)cc1,8.24
19,CCC(C(=O)NCCCN1CCCC1=O)n1c2ccccc2c2nc(=O)cc(C)n21 (stereo not drawn),13.4
20,O=C(CCc1nnc2ccc(N3CCC4(CC3)OCCO4)nn12)Nc1ccc(F)cc1,-0.576
21,Cc1cc(NC(=O)c2nn(C)c(C)c2[N+](=O)[O-])no1,6.53
22,Cc1ccc(-c2csc3nnc(SCC(=O)Nc4nsc(-c5ccccc5)n4)n23)cc1,-19.1

row,Compound,"hERG current change (%, negative = inhibition) at 1uM [%]"
1,COC(=O)c1cccc(CSc2nc3ccccc3[nH]2)c1,4.94
2,Cc1ccc(C(=O)Nc2ccc(Br)c(C(F)(F)F)c2)cc1,10.2
3,CCc1nnc2n1N=C(c1ccc(Br)cc1)CS2,3.84
4,Cc1ccc(NC(=O)CCC(=O)OCC(=O)c2ccc(-c3ccccc3)cc2)cc1,1.24
5,Cc1ccc(C(=O)CCC2CCCC2=O)cc1 (stereo not drawn),7.21
6,Cc1ccc(C)c(/C(O)=C2\C(=O)C(=O)N(CCCn3ccnc3)C2c2cccnc2)c1 (stereo not drawn),1.45
7,O=C(CCNS(=O)(=O)c1cccs1)Nc1nccs1,8.16
8,CC(=O)Nc1ccccc1-c1nnn(CC(=O)Nc2ccc3c(c2)OCCO3)n1,15.2
9,COC(=O)c1cc(C)sc1NC(=O)CN1CCN(C(=O)c2ccco2)CC1,-3.32
10,O=C(Cc1ccccc1)NC1CCN(C(=O)c2ccc([N+](=O)[O-])cc2)CC1,-17.4
11,Cn1nccc1C(=O)N1CCCC(N2CCN(c3cccc(C(F)(F)F)c3)CC2)C1 (stereo not drawn),5.64
12,Cc1onc(-c2c(Cl)cccc2Cl)c1C(=O)NCc1ccccn1,7.35
13,CCOC(=O)N1CCN(c2cc(C)c([N+](=O)[O-])cc2F)CC1,4.14
14,CCCCNC(=O)NS(=O)(=O)c1cnccc1Sc1ccc(Cl)cc1,13.2
15,N#Cc1c(-c2ccccc2)nc(SCc2ccc([N+](=O)[O-])cc2)[nH]c1=O,17.5
16,CCOC(=O)Cn1c(CN(Cc2ccccc2)Cc2ccccc2)nc2c1c(=O)[nH]c(=O)n2C,10
17,O=C(COC(=O)c1ccc([N+](=O)[O-])cc1)Nc1ccc(Cl)cn1,-8.1
18,CCCN1CCN(CCCNC(=O)c2cc3c(s2)-c2c(C)cccc2OC3)CC1,-67.5
19,O=C(NCCOc1ccccc1)c1ccccc1NC(=O)C1CCCO1 (stereo not drawn),12
20,CC(=O)c1ccc(C(=O)NC2CC(C)(C)Cc3c2cnn3-c2ccccc2)cc1 (stereo not drawn),5.88
21,O=C(c1ccco1)N1CCCC(c2nc3c(nnn3Cc3cccc(Cl)c3)c(=O)[nH]2)C1 (stereo not drawn),-3.13
